About 540 (0.36%) of roughly 150,000 compounds showed an effect of 50% or more. The list shows a part of the results.

The term % Inhibition denotes the relative decrease from the control value, in per cent.

The experiment concerns Plasmodium falciparum. In words: Primary screen in NF54 nanoGlo assay, in single point, at 2uM, 72h; a lower Z score goes with more inhibition. It is filed as functional, Erythrocyte. Particulars: timepoint 72 hour.
Consider `Nc1cc(N2C[C@@H]3[C@H]4CC[C@H](CC4)[C@@H]3C2)nc(N)n1`, for which the “% Inhibition” value came out at 8% and the Z score was -1.06.
On the same counts, the results for `CC(C)Cc1noc(CN(C)C(=O)Nc2ccc3c(c2)C(=O)OC3)n1` are -3% and 0.54.
On the same counts, the results for `Cc1c(NC(=O)CN2C[C@@H]3CC[C@H]2CN(Cc2cscn2)C3)cnn1C` are 1% and -0.22.
On to `CCC(CC)(NC(=O)C1CN(C(=O)c2ccc(F)c3ccncc23)C1)C(N)=O`, for which the “% Inhibition” value is recorded as -6% and the Z score was found to be 0.67.
On the same counts, the results for `OCc1cnc(N2CCO[C@H](C(F)(F)F)C2)cn1` are 2% and -0.29.
For the compound `CC(C)(C)c1ncc2c(n1)CCN(CCOc1cccc(C(=O)O)c1)C2`, the “% Inhibition” value is -17% and the Z score is on record as 1.81.
In the case of `O=C1NCC2=C1[C@@H](c1ccccc1)Nc1ccccc1N2`, the “% Inhibition” value is -3% and the Z score was 0.24.
Take `CC(C)c1ccc(NC(=O)C2CCN(S(=O)(=O)c3ccc4c(c3)sc(=O)n4C)CC2)cc1`: the “% Inhibition” value is given as -7% and the Z score turned out to be 0.88.
On the same counts, the results for `CC1CC1c1ccc(CN(C)C(=O)C(C)n2cncn2)o1` (stereo unspecified) are -11% and 1.59.
Taken in the same sequence, the figures for `O=C1NCC(=O)N2C(c3ccccc3)c3[nH]c4ccccc4c3C[C@@H]12` (stereo partly specified) were 5% and -0.6.
Turning to `C[C@@H]1CN(C(=O)CN2C[C@@H]3CC[C@H]2CN(Cc2ccccn2)C3)C[C@H](C)O1`, the “% Inhibition” value was -19% and the Z score is given as 1.87.
Consider `O=c1[nH]c(NCC2CCOCC2)nc2c1Cc1ccccc1OC2`, for which the “% Inhibition” value was -6% and the Z score amounted to 1.06.
With `Cc1ccc(-c2nnc([C@H](C)Nc3ccc4oc(C)nc4c3)o2)cc1`, the “% Inhibition” value is on record as -24% and the Z score worked out at 2.13.
Consider `O=C(NCc1cccc2[nH]ccc12)c1ccc2occc2c1`, for which the “% Inhibition” value is recorded as -6% and the Z score is reported as 0.99.
Consider `Cc1cccc(NC(=O)N[C@@H](C)c2nnc(C(F)(F)F)[nH]2)c1F`, for which the “% Inhibition” value is reported as -13% and the Z score is reported as 1.77.
Taken in the same sequence, the figures for `c1ccc(Oc2ccnc(N3CCCC[C@H]3c3ncccn3)n2)cc1` were -6% and 0.77.
On the same counts, the results for `CCOC(=O)c1noc2ncnc(N3CCCC[C@@H]3C)c12` are 6% and -1.11.
Regarding `CC(=O)Nc1ccc(C(=O)N(CCc2ccccc2)C2CCN(C)CC2)cn1`, the “% Inhibition” value is given as -9% and the Z score stood at 1.29.
For `CN(C)c1cc(C(=O)N[C@H]2CCCCNC2=O)ccn1`, the “% Inhibition” value is reported as -9% and the Z score is 1.68.
For `COc1c(C)cnc(CN2CCC(c3nnc[nH]3)CC2)c1C`, the “% Inhibition” value is on record as 4% and the Z score was -0.78.
Turning to `O=C(Nc1ccccc1)Nc1ccnn1C1CCCC1`, the “% Inhibition” value stood at 3% and the Z score is -0.46.
Consider `CCn1ccc2c(CN(C)[C@H](c3ccccn3)C3CC3)cccc21`, for which the “% Inhibition” value stood at 1% and the Z score is on record as -0.12.
For the compound `O=C(O)C[C@H]1CCCCN1C(=O)CC1=CCCCC1`, the “% Inhibition” value is listed as -8% and the Z score is 1.08.
On the same counts, the results for `CC(C)[C@H](Nc1ncncn1)c1nccn1C` are 18% and -2.43.
Regarding `Cc1nn(-c2nc(C)c(C)c(=O)[nH]2)c(C)c1CCC(=O)N1CCc2ccccc2C1`, the “% Inhibition” value is -22% and the Z score is listed as 2.81.
For the compound `CCCC[C@H](NCC=C(C)C)c1cccnc1`, the “% Inhibition” value turned out to be 5% and the Z score is -0.57.
On the same counts, the results for `Cc1nc(C)c([C@H](C)N(C)S(=O)(=O)C2COC2)s1` are 0% and 0.02.
With `Cc1cncc([C@H](C)Nc2ccc3c(c2)CCC(=O)N3CC2CC2)c1`, the “% Inhibition” value was determined as 1% and the Z score is given as -0.2.
On the same counts, the results for `O=C(N[C@H]1CCOc2ccccc21)c1ccc(=O)[nH]c1` are -11% and 1.1.
Consider `CC(C)N(CC(=O)Nc1nc(CC(=O)Nc2ccccc2F)cs1)C(=O)c1ccc(Cl)c(Cl)c1`, for which the “% Inhibition” value is -5% and the Z score turned out to be 0.61.
On the same counts, the results for `O=C(c1cn[nH]c1)N1CCN(c2ccc(C(F)(F)F)cc2)CC1` are -7% and 0.99.
`Cc1ccc(Cn2c(=O)c(C(=O)N3CCN(C)CC3)nn(-c3cccc(F)c3)c2=O)cc1`: the “% Inhibition” value is on record as 1% and the Z score is -0.13.
On the same counts, the results for `Cc1ccc(=O)n(Cc2nc(C)nn2-c2ccc3nc(C)sc3c2)n1` are -7% and 1.12.
Regarding `Cn1cc(N2C(=O)CN(Cc3ccc(C(F)(F)F)cc3)C2=O)cn1`, the “% Inhibition” value was -12% and the Z score is on record as 2.25.
Consider `C[C@H](NC(=O)c1cccn1C)c1ccc(N2CCCS2(=O)=O)cc1`, for which the “% Inhibition” value is recorded as -8% and the Z score worked out at 1.57.
On the same counts, the results for `O=C(Nc1ccc(N2CCOCC2)cc1)[C@@H]1CCCc2ccccc21` are -13% and 1.29.
Turning to `CN(C)c1ccc(-c2noc(C(=O)Nc3ccccc3)n2)cn1`, the “% Inhibition” value is recorded as -10% and the Z score came out at 2.04.
`OC[C@H]1CCCN(CCCNCc2ccc3cc(O)ccc3c2)C1`: the “% Inhibition” value is reported as -6% and the Z score turned out to be 0.93.
For the compound `Cc1cc(C)n(CCC(=O)N2CCC(CCc3noc(N(C)C)n3)CC2)n1`, the “% Inhibition” value is on record as -5% and the Z score is recorded as 0.75.
For `C[C@H](CO)N(C)S(=O)(=O)c1csc2ccc(Cl)cc12`, the “% Inhibition” value is recorded as -6% and the Z score was 0.98.
Taken in the same sequence, the figures for `CC1CCCN(C(=O)NCCc2nccn2Cc2ccccc2)C1C` (stereo unspecified) were -3% and 0.62.
For `O=S(=O)(c1cccnc1)N(CC(F)(F)F)C1CCOCC1`, the “% Inhibition” value is recorded as -5% and the Z score is reported as 0.75.
On the same counts, the results for `Cc1ccc2oc(CN(Cc3cc(F)ccc3F)C(=O)c3ccc(Cl)cc3Cl)nc2c1` are -13% and 2.12.
As to `CS(=O)(=O)N1CCC(CC2CC2)(c2noc(-c3ccc(F)cc3)n2)CC1`, the “% Inhibition” value is recorded as -5% and the Z score was 0.7.
`CCN1CCN(C(=O)C(=Cc2cccc(F)c2)n2nnnc2C)CC1`: the “% Inhibition” value is -4% and the Z score is 0.67.
Consider `Cc1noc(C)c1CC(=O)Nc1cccc(N2CCCC2=O)c1`, for which the “% Inhibition” value is reported as -2% and the Z score is 0.38.
On to `CCCCNC(=O)N(C)C1CCC(CO)CC1` (stereo unspecified), for which the “% Inhibition” value came out at 2% and the Z score is reported as -0.38.
On the same counts, the results for `COCCn1nnnc1[C@]1(N2CCCC2)CCN(C(=O)c2ccc(OC)cc2OC)C1` are -3% and 0.39.
Consider `COCCn1ccc(C(=O)N2CCc3cc(-c4ccccc4)ccc32)n1`, for which the “% Inhibition” value is recorded as -6% and the Z score was 1.19.
On to `COC(=O)c1ccc(N[C@H]2CCCc3cc(OC(F)F)ccc32)nn1`, for which the “% Inhibition” value is on record as -10% and the Z score is on record as 1.4.
Consider `Cc1nonc1OCCn1cc(-c2ncc[nH]2)nn1`, for which the “% Inhibition” value is recorded as -9% and the Z score turned out to be 1.17.
In the case of `COc1ccc(CCOc2nc(-c3cccc(C(F)(F)F)c3)n(-c3ccc(NC(=O)CC(C)C)cc3)n2)cc1`, the “% Inhibition” value was -10% and the Z score amounted to 1.85.
On the same counts, the results for `Cc1nnc(-c2cccc(NC(=O)c3cnoc3-c3ccccc3C(F)(F)F)c2)o1` are 5% and -0.55.

The values are drawn from ChEMBL document CHEMBL4888484, “Replenishing the malaria drug discovery pipeline: Screening and hit evaluation of the MMV Hit Generation Library 1 (HGL1) against asexual blood stage Plasmodium falciparum ,using a nano luciferase reporter read-out” (2022).
